# Reference: the BET-seq Pho4 binding data (Le et al. 2018)
# The other results are listed elsewhere or left out. The energies were worked out here from pooled read counts, against the library average; single values are noisy.
# Molecular target: T1, Pho4 (S. cerevisiae) (UniProt P07270)
# T1 sequence: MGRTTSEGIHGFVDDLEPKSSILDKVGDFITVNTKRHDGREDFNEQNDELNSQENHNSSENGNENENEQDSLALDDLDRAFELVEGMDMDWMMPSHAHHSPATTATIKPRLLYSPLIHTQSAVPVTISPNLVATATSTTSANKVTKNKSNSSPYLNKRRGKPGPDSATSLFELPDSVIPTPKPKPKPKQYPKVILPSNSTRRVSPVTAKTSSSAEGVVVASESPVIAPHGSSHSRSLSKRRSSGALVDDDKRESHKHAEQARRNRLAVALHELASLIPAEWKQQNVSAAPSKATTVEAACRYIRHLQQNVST
# Assay: relative binding free energy (BET-seq); higher = weaker binding
# Conditions: reference: library average
row,Sequence,relative binding free energy [kcal/mol]
1,TGTTACACGTGGAGGA,0.09
2,AGGACCACGTGTCGGG,0.07
3,GGCGTCACGTGGTTAT,0.07
4,ATGGTCACGTGGGGTT,0.04
5,AAGGACACGTGATTTA,0.24
6,AGAACCACGTGAGGTT,0.4
7,ACTGGCACGTGTAGTT,-0.08
8,TTTCGCACGTGGTATT,-0.15
9,TGACACACGTGGGTGG,-0.16
10,GGTTTCACGTGTGCTC,0.3
11,TAATACACGTGGTATG,-0.08
12,GTGAACACGTGGAGTT,-0.03
13,TTGGTCACGTGAGTGC,0.25
14,TCATTCACGTGGATTG,0.18
15,GCTTGCACGTGCTGTG,-0.01
16,GGGTACACGTGTGCAT,0.1
17,TAGTGCACGTGTATGG,0.06
18,TCAGTCACGTGTGATG,0.17
19,ATTGTCACGTGGTTGG,0.01
20,TGTGTCACGTGCTTGG,0.05
21,GTATTCACGTGTTTAG,0.18
22,GAAGGCACGTGGTATG,-0.11
23,GAGTTCACGTGCATGG,0.4
24,TGTGTCACGTGGAATC,0.12
25,GGAAACACGTGGGGAT,-0.16
26,TTGTCCACGTGGGCGG,-0.07

row,Sequence,relative binding free energy [kcal/mol]
1,ATTGGCACGTGCGAAT,-0.13
2,TTAAACACGTGAGGAG,0.31
3,CGTTACACGTGGCGGT,0.18
4,GGTTGCACGTGGAATA,0.02
5,ATTATCACGTGATCGT,0.26
6,ACTGACACGTGAGTGG,0.27
7,GTTTACACGTGAAGGT,0.45
8,ACGTTCACGTGAGCGG,0.34
9,TGATCCACGTGAGGGA,0.22
10,GTTAGCACGTGGAGAA,0.07
11,GTTTTCACGTGGTAGC,0.33
12,AAAGGCACGTGTGAGT,-0.03
13,TATGTCACGTGCTGTT,0.14
14,AGTCACACGTGGTATG,-0.07
15,TTTATCACGTGTAGAC,0.24
16,GGCGGCACGTGTCAGT,0.05
17,TTTTTCACGTGTGCTA,0.21
18,GCTGACACGTGGGTGG,-0.05
19,ATTGTCACGTGGGGAA,0.11
20,ATAACCACGTGTGTTG,-0.06
21,CGTCTCACGTGGGTGG,0.02
22,TGTTTCACGTGCTGTT,0.26
23,ATAATCACGTGATAGT,0.22
24,GGGACCACGTGGGGTA,-0.14
25,GGCGTCACGTGGTCAG,0.1
26,CGTATCACGTGTTGAT,0

row,Sequence,relative binding free energy [kcal/mol]
1,GTAGACACGTGATGCG,0.15
2,GTGGACACGTGTGACT,0.06
3,GAATTCACGTGTTGTA,0.34
4,CGTTCCACGTGTGGGT,0.08
5,TATGTCACGTGGGCTC,-0.1
6,GAAAACACGTGGGAGG,0.12
7,TATAACACGTGGAATT,0.1
8,CTATACACGTGGTTTT,0.03
9,TTAGTCACGTGGTACT,0.03
10,ATCGTCACGTGAGAGG,0.3
11,ACGTGCACGTGATTTT,0.04
12,ATGGACACGTGCCGGG,0.02
13,GCGGGCACGTGTTGGA,-0.13
14,GGGTCCACGTGTCTGT,0.14
15,TGACACACGTGTGGGC,0.09
16,CTTGTCACGTGGGAGC,0.04
17,GTCATCACGTGGGGGC,0.12
18,CGTAGCACGTGGTGTC,-0.12
19,TCGGACACGTGTTATG,0.13
20,TCTTGCACGTGGAGTG,-0.12
21,CCGGGCACGTGGGCAG,-0.2
22,GGTGGCACGTGAGCAT,0.16
23,GCGTTCACGTGTGGTG,0.34
24,TAGCGCACGTGGGATT,-0.24
25,ATATGCACGTGTGGCA,-0.07
26,CTTTTCACGTGATCTG,0.34

row,Sequence,relative binding free energy [kcal/mol]
1,AGTTGCACGTGTCGGC,0.1
2,ATCGTCACGTGGAAGT,0.09
3,GAGTTCACGTGTAGAG,0.31
4,GCTGGCACGTGGGGCC,-0.02
5,TAAGTCACGTGTAGGC,0.09
6,CGCGTCACGTGATGTG,0.13
7,CTATACACGTGGTGTG,-0.13
8,GGTTACACGTGTGGAT,0.28
9,ATGGTCACGTGTTGTT,0.12
10,TTGAGCACGTGCCGTA,-0.04
11,AATATCACGTGTTTTA,0.07
12,CGATTCACGTGGGGTA,0.13
13,TAGGACACGTGGATGT,-0.12
14,TGTACCACGTGGTGGT,-0.15
15,CGTGACACGTGGTTGG,0.04
16,AGGTACACGTGATGAA,0.24
17,GGTTTCACGTGTGGTT,0.38
18,TAGGTCACGTGTGTAG,0.1
19,GTTATCACGTGAGAGG,0.26
20,GTAGTCACGTGCAGTA,0.11
21,CTTATCACGTGAATGT,0.28
22,TCTGTCACGTGTTTTC,0.06
23,GTTCCCACGTGTGGGT,0.02
24,TTGTGCACGTGATATC,0.03
25,GAACGCACGTGGGTAT,-0.07
26,GGTGCCACGTGGGGCT,-0.18

row,Sequence,relative binding free energy [kcal/mol]
1,TTTAGCACGTGCCTGT,-0.13
2,GTGGTCACGTGAGCTA,0.32
3,TGTGACACGTGAGAAG,0.05
4,TTTCGCACGTGGGGTC,-0.29
5,CGTGTCACGTGAAGAG,0.22
6,GACAGCACGTGGCGGG,-0.17
7,CTGAGCACGTGTATTG,0.01
8,ATCGTCACGTGGGTGC,0.14
9,TGGGACACGTGCTCGG,0.03
10,ATTTGCACGTGGCTAG,0.01
11,TGATGCACGTGCATGT,-0.16
12,TGTAACACGTGGGAGT,-0.04
13,TGGGTCACGTGCGAGT,0.05
14,TTGAGCACGTGGTGGG,-0.16
15,CTAAGCACGTGTTAGT,-0.09
16,GATGTCACGTGGTAGT,0.12
17,CGGTTCACGTGGGTGC,0.14
18,TGTCGCACGTGGGGTT,-0.26
19,AGACTCACGTGAGGAG,0.48
20,TTAGGCACGTGTGCTC,-0.13
21,TTGTACACGTGTCAAT,0.08
22,GAATACACGTGATTGT,0.18
23,CTTGTCACGTGCGATG,0.15
24,TAGGTCACGTGAGATG,0.28
25,AATGACACGTGTCGGT,0.04
26,TCAGTCACGTGTATGG,0.14

row,Sequence,relative binding free energy [kcal/mol]
1,TGTATCACGTGTTTGC,0.09
2,AGGGGCACGTGTCGGA,-0.21
3,AACGGCACGTGGTATG,-0.08
4,ATGAGCACGTGATATT,-0.08
5,TAATTCACGTGACGGT,0.31
6,TAAGGCACGTGGTTAT,-0.11
7,ACAGGCACGTGGCGGG,-0.27
8,TTGTGCACGTGGCAGT,-0.01
9,TGTTGCACGTGTACTG,-0.04
10,ATTCTCACGTGTTTAG,0.25
11,GGGGGCACGTGCCTTG,-0.25
12,AGGGTCACGTGCGATA,0.04
13,TGGATCACGTGGGCCT,0.02
14,GTGCTCACGTGGTGAC,0.26
15,TATGGCACGTGCTGGT,-0.15
16,CGGGACACGTGGGGTA,-0.28
17,TGATACACGTGGATAT,0
18,TTGAGCACGTGAAGAT,0.15
19,GTGCGCACGTGAATGT,0.31
20,TGTCGCACGTGGTGTG,-0.02
21,TTTCTCACGTGTTGGC,0.3
22,TGTAGCACGTGCGCTG,-0.13
23,TGTTACACGTGAGTAG,0.31
24,GGGTACACGTGGAGTC,0.07
25,TGCTGCACGTGGAGAT,0.03
26,GTTTTCACGTGTAATG,0.43

row,Sequence,relative binding free energy [kcal/mol]
1,TAAATCACGTGGTTTC,0.07
2,GCGGTCACGTGGTGGT,0.11
3,TGGTGCACGTGCAGTG,-0.02
4,GTGACCACGTGGGTTG,-0.26
5,TGTATCACGTGAGATT,0.25
6,GGCTGCACGTGATGGC,0.29
7,GCGATCACGTGTGTGG,0.14
8,TAGTTCACGTGATGTG,0.3
9,GGTTACACGTGGCAGG,-0.06
10,CCTGTCACGTGGGGAG,-0.12
11,CCTGTCACGTGTGGTG,0.03
12,AGGGACACGTGTTGGG,0.07
13,TATGTCACGTGGCAAG,-0.01
14,AAGGTCACGTGGTCAG,0.05
15,TGATACACGTGTTATA,0.01
16,ATGAGCACGTGGTAAA,0
17,ATTGCCACGTGTGTAG,-0.06
18,ACTTTCACGTGTGGGG,0.29
19,TTTATCACGTGGATTA,0.12
20,AGATACACGTGCAGGT,0.2
21,TCGGTCACGTGTGTTT,0.14
22,TCAGACACGTGAGGGT,0.27
23,AGGGCCACGTGTTTTA,-0.09
24,CGGAACACGTGGGTGG,-0.15
25,TGGAGCACGTGTTACG,-0.11
26,GTTTTCACGTGTTTCG,0.21

row,Sequence,relative binding free energy [kcal/mol]
1,AGTATCACGTGAGATG,0.39
2,GGAGTCACGTGATATG,0.41
3,TATATCACGTGACGGG,0.24
4,TTTGCCACGTGTTCTT,0.06
5,TTGATCACGTGTGCTA,0
6,TGGTGCACGTGATCGG,-0.08
7,TTGGACACGTGGAGTA,-0.17
8,AAGATCACGTGTGGGG,0.21
9,CGGGGCACGTGTCCGG,-0.16
10,GTAAACACGTGTTAGT,-0.05
11,GAATTCACGTGGTTGG,0.32
12,AGGCGCACGTGCGAGG,-0.17
13,TTAGTCACGTGAGGGT,0.29
14,CTGATCACGTGTTTGG,0.06
15,TGAGGCACGTGTGGCA,-0.08
16,AATTTCACGTGATAGA,0.3
17,TGTCGCACGTGTCGGT,0.01
18,TGGCGCACGTGAGTTA,0.22
19,TAGATCACGTGGGATT,0.21
20,GTTTACACGTGGTAAC,0.23
21,TATGCCACGTGTGTTT,-0.15
22,GTATACACGTGGTAGG,-0.01
23,TCGGGCACGTGTTTTA,-0.05
24,TCATTCACGTGAGGGT,0.3
25,GGGAGCACGTGGAGAA,0.03
26,GGGGGCACGTGCTCAG,-0.2

row,Sequence,relative binding free energy [kcal/mol]
1,TGAATCACGTGAAGAA,0.51
2,GTGGTCACGTGTGACG,0.33
3,GTGGACACGTGTGCGA,0.04
4,TTTTACACGTGCAGTG,0.03
5,TTGGCCACGTGTAAGA,0.15
6,TTGGGCACGTGTTAAC,0
7,TTCAACACGTGATGTT,0.14
8,GTTGGCACGTGATTGG,0.12
9,TGCGTCACGTGTAGGT,-0.14
10,GTTGGCACGTGCGCAG,-0.15
11,GTGTACACGTGTCGGG,0.1
12,TTTAACACGTGGGCAG,-0.11
13,CGTTGCACGTGCGGAG,0.06
14,GGTGGCACGTGGTTCA,-0.15
15,TCAGTCACGTGAGGAT,0.32
16,GTTGCCACGTGGGCAG,-0.14
17,GGGGTCACGTGCGGGA,0
18,CGAAGCACGTGAGTTG,0.13
19,GAATTCACGTGGGTCG,0.29
20,AAGGCCACGTGTGGAT,0.02
21,CGGAACACGTGGGGGT,-0.11
22,TTGTTCACGTGATGTA,0.19
